Results from PubChem BioAssay (NCATS).
The shares of active, inactive and inconclusive entries below differ from those in the screen. For some assays here: Potencies beside an inconclusive call are fits to weak or partial responses and may not hold up. For some assays here: “Side channel” marks fits to a control or component signal instead of the main read-out. Calls of active or inactive are those of the source. Unless noted, calls follow the shape of the dose curve; as a rule, active = well fitted curve in the direction sought with a large enough effect; inconclusive = small, poorly fitted or top-dose-only effect, or another doubt; inactive = no such curve, though single readings can be large; an effect the other way counts as inactive or inconclusive.

Tests used:
[1] = NFAT Signaling Pathway (AID 444; active = well fitted curve in either direction with a large enough effect, not every such curve was filed as active; inconclusive = small, poorly fitted or top-dose-only effect, or another doubt;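 also: carbachol stimulus at about its EC50 of 1 µM final; % is scaled to controls: 0 for no effect and ±100 for the full control effect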); conditions: Jurkat NFAT-bla M1, carbachol, beta-lactamase ratio, 5 h; at 17.2 µM (top of the series) unless noted
Method in brief: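 Read-out: CCF4 FRET ratio (460 nm/530 nm) after 1 h RT dye loading, used for %activity and AC50 from titration series. Cells: Jurkat NFAT-β-lactamase/M1 line, treated with compound plus 1 uM carbachol for 5 h, 37 °C.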

[2] = biological target: Cytochrome P450 2C9 (Homo sapiens) (UniProt P11712); test: qHTS Assay for Inhibitors and Substrates of Cytochrome P450 2C9 (AID 883); conditions: recombinant CYP2C9, luciferin-H luminescence, 60 min; activity change, negative = inhibition: at 57.1 µM (top of the series); also: potency is read from the fitted curve at half-maximal effect; nearly all actives have a fitted effect of over 60% in size
Chain of UniProt P11712 (P11712 whole entry, looked up): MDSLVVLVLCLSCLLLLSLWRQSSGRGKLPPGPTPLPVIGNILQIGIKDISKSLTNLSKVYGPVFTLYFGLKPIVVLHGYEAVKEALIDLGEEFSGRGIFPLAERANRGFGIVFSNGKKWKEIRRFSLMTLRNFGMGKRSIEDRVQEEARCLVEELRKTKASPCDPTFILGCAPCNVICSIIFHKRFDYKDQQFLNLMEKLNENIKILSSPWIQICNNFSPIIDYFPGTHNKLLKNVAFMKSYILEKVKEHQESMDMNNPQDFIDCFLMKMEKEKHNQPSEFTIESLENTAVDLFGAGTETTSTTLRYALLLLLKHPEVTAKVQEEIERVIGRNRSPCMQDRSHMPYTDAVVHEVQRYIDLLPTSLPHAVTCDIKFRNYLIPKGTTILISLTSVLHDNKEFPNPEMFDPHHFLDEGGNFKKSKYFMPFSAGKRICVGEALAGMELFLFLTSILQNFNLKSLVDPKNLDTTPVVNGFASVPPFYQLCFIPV
Method in brief: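 Turnover of Luciferin-H (100uM, KM) by 10nM human CYP2C9 was measured over 60 min at 37C with NADPH regeneration; inhibitors and some substrates reduce luminescence. Data normalized to sulphaphenazole 57uM.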

[3] = biological target: 3',5'-cyclic-AMP phosphodiesterase 4B (Homo sapiens) (UniProt Q07343); test: qHTS Assay for Inhibitors of PDE-IV (AID 607; active = well fitted activation curve with a large enough effect in the main read-out, with a control signal flat, not every such curve was filed as active; inconclusive = small, poorly fitted or top-dose-only effect, or effect the other way, or a change in a side signal; also: potency is read from the fitted curve at half-maximal effect; as to activation (PDE inhibition): % of control where 0% means no effect); conditions: HEK293 ACTOne CNG channel cells, membrane potential fluorescence; activation (PDE inhibition): at 22.9 µM (top of the series)
Chain of UniProt Q07343 (Q07343 whole entry, looked up): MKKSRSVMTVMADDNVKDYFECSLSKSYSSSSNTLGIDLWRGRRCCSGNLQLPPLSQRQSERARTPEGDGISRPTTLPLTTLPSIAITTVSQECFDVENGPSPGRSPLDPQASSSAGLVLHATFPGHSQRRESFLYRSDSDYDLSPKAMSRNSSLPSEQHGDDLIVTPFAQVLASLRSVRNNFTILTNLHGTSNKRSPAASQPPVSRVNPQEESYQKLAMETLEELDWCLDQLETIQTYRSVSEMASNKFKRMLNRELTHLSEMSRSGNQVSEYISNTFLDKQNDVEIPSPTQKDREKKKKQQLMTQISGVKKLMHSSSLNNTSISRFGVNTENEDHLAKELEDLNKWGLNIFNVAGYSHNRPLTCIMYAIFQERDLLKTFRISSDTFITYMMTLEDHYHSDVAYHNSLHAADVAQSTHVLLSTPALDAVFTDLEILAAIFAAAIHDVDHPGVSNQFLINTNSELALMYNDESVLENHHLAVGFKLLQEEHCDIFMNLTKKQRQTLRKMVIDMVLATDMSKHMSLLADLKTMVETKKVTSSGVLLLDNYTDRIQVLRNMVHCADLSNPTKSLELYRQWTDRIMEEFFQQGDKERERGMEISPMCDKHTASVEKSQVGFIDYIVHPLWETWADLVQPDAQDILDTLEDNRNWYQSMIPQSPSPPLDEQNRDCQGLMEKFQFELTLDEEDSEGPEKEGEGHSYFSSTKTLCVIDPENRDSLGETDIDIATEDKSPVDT
Method in brief: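 The readout is membrane depolarisation from a cAMP-sensing CNG channel, detected with a potential dye at ex 535/em 590. Cells were HEK293-derived (endogenous PDE-IV) at 1000 cells/well, titrated up to 22.9 uM final.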

[4] = qHTS Assay for Identification of Small Molecule Agonists for Hypoxia Response Element Signaling Pathway (AID 914; active = well fitted activation curve with a large enough effect in the signal ratio, with a control signal flat, not every such curve was filed as active; inconclusive = small, poorly fitted or top-dose-only effect, or effect the other way, or a change in a side signal; the % refers to the signal ratio; also: potency is read from the fitted curve at half-maximal effect; as to activation: top concentration of the series differs between compounds; % of control where 0% means no effect); conditions: ME-180 (cervical carcinoma) HRE-bla reporter, beta-lactamase ratio, CoCl2, 17 h; activation: stronger effect = higher value
Method in brief: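 Reporter activity (beta-lactamase, CCF4 460nm/530nm ratio) in HRE-bla ME-180 cells is recorded after 17 h compound exposure with EC50 CoCl2 at 37 degrees Celsius. AC50 values come from titration data.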

[5] = biological target: Cytochrome P450 3A4 (Homo sapiens) (UniProt P08684); test: qHTS Assay for Inhibitors and Substrates of Cytochrome P450 3A4 (AID 884); also: potency is read from the fitted curve at half-maximal effect; nearly all actives have a fitted effect of over 50% in size
Chain of UniProt P08684 (P08684 whole entry, looked up): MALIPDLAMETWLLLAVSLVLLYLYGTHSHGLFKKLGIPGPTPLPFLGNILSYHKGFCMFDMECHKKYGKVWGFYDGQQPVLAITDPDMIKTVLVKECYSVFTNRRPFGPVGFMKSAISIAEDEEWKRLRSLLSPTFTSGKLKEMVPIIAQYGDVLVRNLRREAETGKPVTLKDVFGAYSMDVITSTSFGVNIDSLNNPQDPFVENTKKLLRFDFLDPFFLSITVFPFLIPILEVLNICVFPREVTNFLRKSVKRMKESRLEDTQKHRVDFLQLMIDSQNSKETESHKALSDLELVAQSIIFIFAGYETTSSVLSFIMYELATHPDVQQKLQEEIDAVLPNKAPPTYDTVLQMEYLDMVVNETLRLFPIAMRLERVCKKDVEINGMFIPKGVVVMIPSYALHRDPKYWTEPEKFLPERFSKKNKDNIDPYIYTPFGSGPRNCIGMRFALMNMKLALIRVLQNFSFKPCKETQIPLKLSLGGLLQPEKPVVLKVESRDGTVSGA
Method in brief: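 20 nM human CYP3A4 with 25 uM Luciferin-PPXE (at KM) in 200 mM KPO4, preincubated 10 min with compound; NADPH regeneration started a 60 min RT reaction. Luciferin detected by luminescence, normalized to 57 uM ketoconazole as full inhibition.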

[6] = biological target: Cytochrome P450 2D6 (Homo sapiens) (UniProt P10635); test: qHTS Assay for Inhibitors and Substrates of Cytochrome P450 2D6 (AID 891); conditions: recombinant CYP2D6, luciferin-ME EGE luminescence; activity change, negative = inhibition: at 57.1 µM (top of the series);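 also: luciferin methyl ether substrate demethylated by CYP2D6 with NADPH regeneration; potency is read from the fitted curve at half-maximal effect; nearly all actives have a fitted effect of over 60% in size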
Chain of UniProt P10635 (P10635 whole entry, looked up): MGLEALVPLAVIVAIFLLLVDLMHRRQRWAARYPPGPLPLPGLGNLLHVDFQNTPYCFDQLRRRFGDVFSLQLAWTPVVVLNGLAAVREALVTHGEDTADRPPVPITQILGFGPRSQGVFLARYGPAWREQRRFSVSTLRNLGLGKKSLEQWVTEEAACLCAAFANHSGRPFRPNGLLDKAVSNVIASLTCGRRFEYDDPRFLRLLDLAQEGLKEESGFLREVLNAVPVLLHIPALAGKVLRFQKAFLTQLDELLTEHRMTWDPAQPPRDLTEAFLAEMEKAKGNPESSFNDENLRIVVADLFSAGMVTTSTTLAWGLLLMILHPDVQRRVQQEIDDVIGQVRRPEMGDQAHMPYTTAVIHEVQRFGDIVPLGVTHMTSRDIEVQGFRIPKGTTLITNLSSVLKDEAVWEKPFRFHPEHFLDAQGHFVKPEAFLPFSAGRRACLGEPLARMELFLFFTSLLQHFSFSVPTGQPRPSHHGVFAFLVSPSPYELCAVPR
Method in brief: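 Human CYP2D6 (5 nM) with 30 uM Luciferin-ME EGE (at Km) in 100 mM KPO4, compound preincubated 10 min, then NADPH regeneration system for 60 min at room temperature. Luciferin read by luminescence; normalized to 1.43 uM quinidine.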

[7] = biological target: ATPase family AAA domain-containing protein 5 (Homo sapiens) (UniProt Q96QE3); test: qHTS screen for small molecules that inhibit ELG1-dependent DNA repair in human embryonic kidney (HEK293T) cells expressing luciferase-tagged ELG1: Hit Confirmation using MMS Stimulated ELG1 (AID 624249); also: potency is read from the fitted curve at half-maximal effect; nearly all actives have a fitted effect of over 60% in size
Chain of UniProt Q96QE3 (Q96QE3 whole entry, looked up, the tested form may be a part): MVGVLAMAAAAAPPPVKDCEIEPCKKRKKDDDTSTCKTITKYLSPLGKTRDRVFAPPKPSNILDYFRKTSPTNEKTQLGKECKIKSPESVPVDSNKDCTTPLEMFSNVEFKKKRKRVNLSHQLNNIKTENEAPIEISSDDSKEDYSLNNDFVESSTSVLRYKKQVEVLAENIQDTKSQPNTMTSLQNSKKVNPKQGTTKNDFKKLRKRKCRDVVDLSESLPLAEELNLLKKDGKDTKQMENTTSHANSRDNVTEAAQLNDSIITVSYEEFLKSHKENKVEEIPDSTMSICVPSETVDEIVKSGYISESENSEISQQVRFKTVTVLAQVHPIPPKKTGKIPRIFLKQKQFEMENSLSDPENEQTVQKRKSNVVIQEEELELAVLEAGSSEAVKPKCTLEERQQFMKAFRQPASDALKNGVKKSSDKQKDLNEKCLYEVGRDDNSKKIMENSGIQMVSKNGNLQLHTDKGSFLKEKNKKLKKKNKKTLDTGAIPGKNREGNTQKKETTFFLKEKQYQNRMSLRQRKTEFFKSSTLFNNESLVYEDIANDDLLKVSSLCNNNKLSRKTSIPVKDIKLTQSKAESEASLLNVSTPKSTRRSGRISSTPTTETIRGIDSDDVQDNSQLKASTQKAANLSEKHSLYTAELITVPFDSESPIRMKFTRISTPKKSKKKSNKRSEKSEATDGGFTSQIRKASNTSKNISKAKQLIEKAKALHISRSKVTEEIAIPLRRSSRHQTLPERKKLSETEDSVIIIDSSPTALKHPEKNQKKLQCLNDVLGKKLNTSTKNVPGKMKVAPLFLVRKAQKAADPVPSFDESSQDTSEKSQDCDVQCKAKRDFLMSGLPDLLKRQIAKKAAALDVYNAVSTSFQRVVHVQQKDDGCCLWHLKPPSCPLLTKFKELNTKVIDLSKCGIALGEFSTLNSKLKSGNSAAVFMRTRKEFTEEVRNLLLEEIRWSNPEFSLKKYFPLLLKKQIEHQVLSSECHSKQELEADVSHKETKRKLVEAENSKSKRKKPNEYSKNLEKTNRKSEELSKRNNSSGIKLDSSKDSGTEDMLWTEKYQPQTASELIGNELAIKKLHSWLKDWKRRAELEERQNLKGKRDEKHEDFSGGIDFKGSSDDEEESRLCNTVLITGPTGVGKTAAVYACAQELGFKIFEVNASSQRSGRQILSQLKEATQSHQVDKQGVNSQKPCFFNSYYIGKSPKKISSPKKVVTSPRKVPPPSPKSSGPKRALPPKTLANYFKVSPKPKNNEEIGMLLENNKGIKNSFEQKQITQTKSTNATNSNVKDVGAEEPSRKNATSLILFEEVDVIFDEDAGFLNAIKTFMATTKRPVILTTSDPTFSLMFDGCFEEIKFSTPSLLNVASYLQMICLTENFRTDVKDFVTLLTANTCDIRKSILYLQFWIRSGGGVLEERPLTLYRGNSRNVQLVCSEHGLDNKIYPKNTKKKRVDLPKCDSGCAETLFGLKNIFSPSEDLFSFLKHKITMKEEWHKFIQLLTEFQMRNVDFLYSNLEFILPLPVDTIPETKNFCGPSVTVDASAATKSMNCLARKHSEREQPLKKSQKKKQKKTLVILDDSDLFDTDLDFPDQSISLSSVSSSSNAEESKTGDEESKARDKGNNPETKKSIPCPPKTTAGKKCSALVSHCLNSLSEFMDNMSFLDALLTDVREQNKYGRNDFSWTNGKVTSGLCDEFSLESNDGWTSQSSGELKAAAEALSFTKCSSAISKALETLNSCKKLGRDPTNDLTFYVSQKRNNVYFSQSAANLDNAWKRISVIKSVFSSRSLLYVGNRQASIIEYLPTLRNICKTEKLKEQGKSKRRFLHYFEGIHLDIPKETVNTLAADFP
Method in brief: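 Seed HEK293T ELG1-luc cells (2,000/well). Add compounds at ~5 h, then MMS to 10 µM final. Incubate 16 h. Measure luciferase using Amplight.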

[8] = biological target: Cytochrome P450 2C19 (Homo sapiens) (UniProt P33261); test: qHTS Assay for Inhibitors and Substrates of Cytochrome P450 2C19 (AID 899); also: potency is read from the fitted curve at half-maximal effect; nearly all actives have a fitted effect of over 60% in size
Chain of UniProt P33261 (P33261 whole entry, looked up): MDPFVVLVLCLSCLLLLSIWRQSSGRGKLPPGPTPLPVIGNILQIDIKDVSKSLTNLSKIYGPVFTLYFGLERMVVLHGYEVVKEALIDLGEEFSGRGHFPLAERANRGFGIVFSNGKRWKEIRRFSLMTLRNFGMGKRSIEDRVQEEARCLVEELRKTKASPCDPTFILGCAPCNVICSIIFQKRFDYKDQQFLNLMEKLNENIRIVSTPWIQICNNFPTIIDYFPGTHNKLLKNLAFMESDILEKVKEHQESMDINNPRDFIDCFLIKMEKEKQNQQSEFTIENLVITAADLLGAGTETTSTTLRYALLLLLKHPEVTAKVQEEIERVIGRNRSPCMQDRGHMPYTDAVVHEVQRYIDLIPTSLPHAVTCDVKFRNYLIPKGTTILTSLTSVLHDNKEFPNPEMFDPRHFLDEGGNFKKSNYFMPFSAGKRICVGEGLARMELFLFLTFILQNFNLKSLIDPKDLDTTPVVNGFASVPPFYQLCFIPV
Method in brief: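 Reactions contain 5nM enzyme, 10uM Luciferin-H EGE (KM) and 50mM KPO4; compound preincubates 10 min at 37C, NADPH regeneration starts turnover for 60 min. Luminescence after detection reagent gives activity.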

[9] = qHTS screen for small molecules that inhibit ELG1-dependent DNA repair: Hit Confirmation in Cell-Based Luciferin Assay (AID 624247); also: potency is read from the fitted curve at half-maximal effect
Method in brief: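 Cell-free confirmation: 23 nL compound pin-transferred onto luciferin substrate reagent, then luciferase added. Luminescence read on a CCD imager; loss of signal flags luciferase-reporter interference.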

[10] = qHTS screen for small molecules that inhibit ELG1-dependent DNA repair: Hit Confirmation with MMS Viability (AID 624251)
Method in brief: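 Luminescent ATP read-out (CellTiter-Glo) gives viability of ELG1-luc HEK293T cells exposed to compounds together with 10 µM methyl methanesulfonate for 16 h.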

[11] = biological target: ATPase family AAA domain-containing protein 5 (Homo sapiens) (UniProt Q96QE3); test: HTS assay for small molecules that inhibit ELG1-dependent DNA repair in human embryonic kidney (HEK293T) cells expressing luciferase-tagged ELG1: Hit Confirmation (AID 624248); also: potency is read from the fitted curve at half-maximal effect; nearly all actives have a fitted effect of over 55% in size
Method in brief: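 Suppression of ELG1-luciferase signal was read by ONE-Glo luminescence in HEK293T reporter cells after 16 h at 37 C co-treatment with compound and 5-fluorouridine as DNA-damaging agent.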
Tags tell the direction and shape of the fitted curve or compound fluorescence and quenching.

With O=C(Oc1ccccc1)N1CCC2(CCCN(c3ccccn3)C2)CC1 the activity change, negative = inhibition [1] was inconclusive: -69% [inhibitor] [at 7.69 µM] and the Potency [2] was inconclusive: 5.01 µM [inhibitor, partial curve].

In the case of O=C(c1cc(C(F)(F)F)cc(C(F)(F)F)c1)N1CCC2(CCCN(Cc3ccncc3)C2)CC1, the activity change, negative = inhibition [1] is reported as inconclusive: -57.3% [inhibitor] [at 7.69 µM] and the Potency [2] is reported as inconclusive: 7.94 µM [inhibitor, partial curve].

With COc1ccc(CNc2ncncc2-c2ccc3c(c2)OCO3)c(OC)c1 the activity change, negative = inhibition [1] was inconclusive: 60.4% [activator] [at 7.69 µM], the Potency [3] was inconclusive: 7.94 µM [rising, partial curve] and the activation [4] was inconclusive: -23.7%.

For Clc1ccc(Cl)c(Nc2ccnc(SCc3ccccc3)n2)c1, the activity change, negative = inhibition [1] was inconclusive: -35.7% [inhibitor] [at 7.69 µM], the Potency [2] was inconclusive: 6.31 µM [inhibitor, single point] and the Potency [5] was inconclusive: 3.98 µM [inhibitor, partial curve]. For the same molecule, the activation [4] was inactive: -13.8%.

For O=C(O)/C(=C\c1ccncc1)c1cccc2ccccc12, the activity change, negative = inhibition [1] was inconclusive: -32% [inhibitor] [at 7.69 µM], the Potency [2] was inconclusive: 3.16 µM [inhibitor, partial curve] and the Potency [5] was inconclusive: 3.98 µM [inhibitor, partial curve]. The Potency [6] was inconclusive: 3.98 µM [inhibitor, single point].

For O=[N+]([O-])c1ccc([C@@H](Nc2ccccc2)c2ccc3cccnc3c2O)cc1, the activity change, negative = inhibition [1] was inconclusive: -53% [inhibitor] [at 7.69 µM] and the Potency [2] was inconclusive: 6.31 µM [inhibitor, single point].

With N#Cc1ccc(CN2CCC3(CCNCC3)CC2)cc1 the activity change, negative = inhibition [1] was inconclusive: -35.3% [inhibitor] [at 7.69 µM], the Potency [3] was “inactive” and the activation [4] was inconclusive: 36.1%.

In the case of CC1(C)Cc2c(C#N)c(SCCOc3ccccc3)nc(N3CCOCC3)c2CO1, the activity change, negative = inhibition [1] is reported as inconclusive: -95% [inhibitor], the Potency [4] is reported as inconclusive: 10 µM [cytotoxic, side channel, partial curve] and the Potency [7] is reported as inconclusive: 35.3 µM [inhibitor, single point].

With Nc1nc(Cc2ccccc2)nc(Cc2ccccc2)c1-c1ccccc1 the activity change, negative = inhibition [1] was inactive: 11.3% [at 7.69 µM], the Potency [2] was inconclusive: 3.16 µM [inhibitor, single point] and the Potency [5] was inconclusive: 3.16 µM [inhibitor, partial curve]. For the same molecule, the Potency [6] was inconclusive: 3.16 µM [inhibitor, partial curve] and the Potency [8] was inconclusive: 6.31 µM [inhibitor, single point].

With O=c1c(-c2ccc(F)c(F)c2)nc2cncnc2n1Cc1ccccc1 the activity change, negative = inhibition [1] was inactive: -10.8% [at 7.69 µM], the Potency [3] was inconclusive: 7.94 µM [activator, partial curve] and the Potency [8] was inconclusive: 0.0501 µM [inhibitor, full curve, poor fit].

For COc1ccc2[nH]cc(CCNc3ccnc(-c4cccc(NS(C)(=O)=O)c4)n3)c2c1, the activity change, negative = inhibition [1] was inconclusive: 184% [activator] [at 7.69 µM], the Potency [2] was inconclusive: 0.126 µM [inhibitor, partial curve] and the Potency [5] was inconclusive: 2.51 µM [inhibitor, full curve].

For O=C(O)c1ccccc1N[C@H](c1ccccc1)c1ccc2cccnc2c1O, the activity change, negative = inhibition [1] was inconclusive: -99.3% [inhibitor] [at 7.69 µM] and the Potency [2] was inconclusive: 5.01 µM [inhibitor, single point].

In the case of O=C(C[N+]1(c2ccccc2)CCOCC1)c1ccccc1, the activity change, negative = inhibition [1] is reported as inactive: 11.5% [at 7.69 µM] and the Potency [2] is reported as inconclusive: 6.31 µM [inhibitor, single point].

For COc1ccc2c(c1OC)C(=O)N1c3ccccc3C(=O)N(c3ccc(F)cc3)C21 (stereo not given), the activity change, negative = inhibition [1] was inconclusive: -56.5% [inhibitor], the Potency [4] was inconclusive: 7.94 µM [inhibitor, partial curve] and the Potency [9] was inconclusive: 28.1 µM [inhibitor, single point]. For the same molecule, the Potency [10] was inconclusive: 12.6 µM [cytotoxic, partial curve].

In the case of CCOc1cccc(-c2nnc3sc(-c4cc(OC)c(OC)c(OC)c4)nn23)c1, the activity change, negative = inhibition [1] is reported as inconclusive: -71.8% [inhibitor] and the Potency [11] is reported as inconclusive: 3.97 µM [inhibitor, full curve].

For N#Cc1ccc(CN2CC3(CCN(C(=O)c4cnccn4)CC3)C2)cc1, the activity change, negative = inhibition [1] was inconclusive: -36.3% [inhibitor] [at 7.69 µM], the Potency [3] was “inactive” and the Potency [4] was active: 3.16 µM.

In the case of COCC(=O)N1CCC2(CCCN(Cc3ccccc3OC)C2)CC1, the activity change, negative = inhibition [1] is reported as inconclusive: -66.7% [inhibitor] [at 7.69 µM], the Potency [3] is reported as “inactive” and the activation [4] is reported as inconclusive: -4.7%.
